# Hit rate of the full screen: of about 45,000 compounds, about 200 (0.44%) were called active. About 7% were inconclusive and are not listed. The call rests on the fitted dose curve; in most records, active means well fitted activation curve with a large enough effect; inconclusive means small, poorly fitted or top-dose-only effect; inactive means no such curve, though single readings can be large or run the other way. Some of the results follow.
# Assay: qHTS of TDP-43 Inhibitors: NCGC Sytravon Library Screen; further: 0% is about no effect; nearly all actives have a fitted effect of over 55% in size
# Details: yeast TDP-43 toxicity rescue, BacTiter-Glo growth, 24 h; series mostly up to 46.1 µM; growth rescue (activation): at the top concentration
# Summary of the method: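 TDP-43-expressing yeast, pregrown in raffinose, seeded at OD600 0.02 in galactose medium with compound for 24 hr at 30 deg C. Growth read by BacTiter-Glo luminescence, so rescue of toxicity appears as activation.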
row,Structure (SMILES),growth rescue (activation)
1,CC(=O)c1cccc(OCC(O)CN2CCN(C(=O)c3ccco3)CC2)c1 (configuration not stated),inactive: 10.6%
2,Cc1ccc(/C=C2\CCn3c2nc2cc(C(=O)O)ccc2c3=O)c(C)c1,inactive: 21%
3,Cc1ccc(C)c(CN2C(=O)c3ccccc3S(=O)(=O)c3ccc(C(=O)N4CCN(C)CC4)cc32)c1,inactive: 13.1%
4,CN(CC(=O)Nc1cccc2ccccc12)C(=O)c1ccc(NC(=O)CC#N)cc1,inactive: 14.2%
5,O=C1/C(=C/c2ccc(Cl)cc2)NC(=S)N1Cc1cccnc1,inactive: 3.58%
6,CCCCCCCC(=O)NNC(=O)c1c(O)c2ccccc2n(CCC)c1=O,inactive: -39.4%
7,Cc1ccc(C)c(OCC(=O)Nc2ccc(S(=O)(=O)Nc3ncccn3)cc2)c1,inactive: 0.419%
8,CCc1nc2ccc(C(=O)NCCN3CCNC3=O)cn2c1N(CC)CCOC,inactive: 8.54%
9,Cc1ccc(S(=O)(=O)N2CCOCC2)cc1C(=O)N(C)CCOc1ccc(Cl)cc1,inactive: -6.92%
10,COC(=O)C(C)NC(=O)c1ccc(C(C)(C)C)cc1 (configuration not stated),inactive: 12.1%
11,COc1ccc(S(=O)(=O)N(CC(=O)N2CCCC2)Cc2ccccc2)cc1,inactive: 21%
12,COc1ccc(NC(=O)N2CCCC(C(=O)NCCc3ccccc3)C2)cc1 (configuration not stated),inactive: 22.9%
13,CSc1ccc(CN2CCC(C)(Oc3ccc(-n4ccnc4)cc3)C2)cc1 (configuration not stated),inactive: -3.49%
14,CC(=O)c1c(C)[nH]c(C(=O)NCCc2c[nH]c3ccccc23)c1C,inactive: -3.48%
15,CC(C)(C)NC(=O)CN(C(=O)c1snc(C(=O)NC2CCCCC2)c1N)c1ccccc1F,inactive: 18.4%
16,NC(=O)Cc1ccc(Nc2nnc(-c3ccccc3)c3ccccc23)cc1,inactive: 11.2%
17,COc1ccc(N2CCN(C(=O)[C@@H](NC(=O)c3cc(OC)cc(OC)c3)C(C)C)CC2)cc1,inactive: 6.8%
18,Cc1noc(C)c1COC(=O)CCC(=O)c1ccc(F)cc1,inactive: 26.8%
19,CCN(C(=O)COc1ccc(C(=O)c2ccccc2)cc1)c1ccccc1,inactive: 29.5%
20,Cc1ccc(NC(=O)CNc2ccc(Cl)c(Cl)c2)cc1S(=O)(=O)N(C)C,inactive: 8.67%
21,NC(=O)N=Nc1c2[nH]c3ccccc3nc-2c2ccccc12,inactive: 3.45%
22,C=CCC1(CC=C)CCCN1C(=O)c1cc(COc2cccc(C(F)(F)F)c2)on1,inactive: 9.66%

row,Structure (SMILES),growth rescue (activation)
1,O=C(Cn1ncc2c(=O)oc3ccccc3c21)NCc1cccnc1,inactive: -9.05%
2,Cc1ccc(NC(=S)NC(=O)c2ccc(Br)o2)c(C)c1,inactive: 9.59%
3,N/C(=C/C(=O)c1ccccc1O)C(F)(F)F,inactive: -0.457%
4,Cc1cc(N2CCCCC2)nc(NCc2ccccc2)n1,inactive: 13.7%
5,Cc1ccc[n+](C(C)C(=O)Nc2ccc([N+](=O)[O-])cc2C)c1 (configuration not stated),inactive: 10.7%
6,Cc1ccc(S(=O)(=O)NCC(=O)N(CC(=O)NCC2CCCO2)Cc2ccco2)cc1 (configuration not stated),inactive: 5.9%
7,CC1(C(=O)NS(=O)(=O)c2ccccc2)CCN1C(=O)CC1CCCCC1 (configuration not stated),inactive: 3.4%
8,Cn1cc(C(=O)C(=O)NC2CC2)c2ccccc21,inactive: -4.46%
9,COCCCNC(=S)N1CCN(C)CC1,inactive: -1.58%
10,CC(=O)Nc1ccc(N(C(=O)Cc2c[nH]c3ccccc23)C(C(=O)NC2CCCCC2)c2ccco2)cc1 (configuration not stated),inactive: 4.93%
11,CCOc1ccc(-n2cnnn2)cc1S(=O)(=O)N1CCC(C)CC1C (configuration not stated),inactive: -3.98%
12,Cc1cc(C)c(C(=O)N(C)CC2CCCN(CCc3ccccc3F)C2)o1 (configuration not stated),inactive: 14.7%
13,C=CCn1c(OCc2ccccc2)n[nH]c1=S,inactive: -1.42%
14,Cc1ccc(C(O)c2ncc(-c3ccc(Cl)cc3)[nH]2)cc1 (configuration not stated),inactive: 9.21%
15,CCOC(=O)N1CCC(N(CCN(C)C)C(=S)Nc2cc(C)cc(C)c2)CC1,inactive: -50.8%
16,CCOC(=O)C1=C(C)N(C)C(=O)NC1c1cc2c(cc1[N+](=O)[O-])OCO2 (configuration not stated),inactive: 7.01%
17,CC(C)N1CCC1(C)C(=O)Nc1nc2ccccc2[nH]1 (configuration not stated),inactive: 15.9%
18,O=C(NCc1cccc2[nH]ccc12)C1CCC(=O)N(CCc2ccc(Cl)cc2)C1 (configuration not stated),inactive: 2.47%
19,Cc1ccc(NC(=O)COC(=O)CCC2CCCC2)cc1S(=O)(=O)N1CCOCC1,inactive: 6.39%
20,COc1ccc(OC)c(NC(=O)COC(=O)CCCN=C2NS(=O)(=O)c3ccccc32)c1,inactive: 7.37%
21,CC1=C/C(=C\C=C(C#N)C#N)N(C)c2ccccc21,inactive: 3.94%
22,N#CC1=C(N)NC(=S)C(C(N)=O)C1c1ccccc1F (configuration not stated),inactive: -26.2%

row,Structure (SMILES),growth rescue (activation)
1,Cc1ccc(NC(=O)c2ccc(Cl)cc2Cl)c(C(=O)c2ccccc2)c1,inactive: 19.7%
2,Cc1cc(=O)[nH]c(N/N=C/c2ccc(Cl)c([N+](=O)[O-])c2)n1,inactive: 5.36%
3,O=C(C[n+]1ccc(/C=C/c2ccccc2)cc1)c1ccc2c(c1)OCCO2,inactive: 14.5%
4,Cc1ccc(-c2nnn(CC(=O)NCc3ccccc3)n2)c(-n2cnnn2)c1,inactive: -6.95%
5,O=C(O)C1CN(C(=O)c2ccccc2)c2cc(Cl)ccc2O1 (configuration not stated),inactive: 9.88%
6,C=CCn1c(C)cc(C2=NNC(=NC(C)(C)C)SC2)c1C,inactive: 2.49%
7,COc1ccc(CNC(=O)Cn2cc(C(F)(F)F)ccc2=O)cc1,inactive: 9.55%
8,CC(C)CNC(=S)N1CCN(c2nc(-c3ccc(Cl)cc3)cs2)CC1,inactive: 24.1%
9,CC(=O)n1cc(Nc2ccc([N+](=O)[O-])cc2)c2ccccc21,inactive: -23.3%
10,O=C(CSc1nnc(-c2cccnc2)o1)Nc1ccc(Cl)cc1,inactive: 13.5%
11,O=C(Nc1ccnn1C1CCN(C(=O)c2ccc(Cl)c(F)c2)CC1)C1CCOC1 (configuration not stated),inactive: 22.4%
12,COc1ccc([N+](=O)[O-])cc1NS(=O)(=O)c1cccc(C(=O)NCCCN2CCCC2=O)c1,inactive: 15.5%
13,CCOC(=O)c1c(CN(C)C)n(-c2ccccc2)c2cc(Br)c(OC)cc12,inactive: 6.48%
14,O=C1c2ccccc2CN1CCNS(=O)(=O)c1ccc2ccccc2c1,inactive: 19.5%
15,CCN1CCCC1CN(Cc1cc2cc(OC)ccc2[nH]c1=O)C(=O)NCc1ccccc1 (configuration not stated),inactive: 11.2%
16,CN(C)c1ccc(C2/C(=C(/O)c3ccccc3)C(=O)C(=O)N2CCCC(=O)O)cc1 (configuration not stated),inactive: -0.407%
17,COCCCNC(=O)c1ccc2c(c1)nc(C)n2-c1cccc(C)c1,inactive: 10%
18,Cc1ccc(CNC(=O)c2ccc(NS(=O)(=O)c3c(C)noc3C)cc2)cc1,inactive: 28.8%
19,COC(CNC(=O)c1ccc2c(c1)ncn2-c1ccc(F)cc1F)OC,inactive: -4.43%
20,O=C(O)Cc1ccc(C(=O)c2ccc(Cl)cc2Cl)s1,inactive: 8.07%
21,Cc1noc(C)c1CSc1ccccc1C(=O)OC(C)C(N)=O (configuration not stated),inactive: 7.01%
22,O=c1cc(N2CCCCC2)c2ccccc2o1,inactive: -2.07%

row,Structure (SMILES),growth rescue (activation)
1,CC(C)Oc1ccccc1OCCCCn1cnc2ccccc2c1=O,inactive: -1.31%
2,CCc1nc2ccc(C(=O)NCCc3ccccn3)cn2c1N(CCC(C)C)CCN(C)C,inactive: 14.1%
3,O=C(Nc1ccc2c(c1)C(=O)OC2)c1ccc(Cl)cc1Cl,inactive: -3.87%
4,CC(=O)Nc1ccc(NC(=O)CCOc2ccccc2C)cc1,inactive: 13.9%
5,CCOC(=O)C1CCCN(C(=O)c2ccc3ccccc3c2)CC1 (configuration not stated),inactive: 31%
6,Cc1cc(C)cc(C(O)c2ncc(-c3ccc(Cl)cc3)[nH]2)c1 (configuration not stated),inactive: 13.8%
7,CC(=O)/C(N=Nc1c(C)n(C)n(-c2ccccc2)c1=O)=C(\C)O,inactive: 6.81%
8,Cc1ccc(SCC(=O)NC(=O)NCc2ccccc2)c(C)c1,inactive: 6.93%
9,COc1ccc(/C=C/C(=O)NC(=S)N2CCN(c3ccccc3OC)CC2)cc1,inactive: -2.91%
10,NNC(=O)C1=NOC(CNc2ncc(C(F)(F)F)cc2Cl)C1 (configuration not stated),inactive: 19.7%
11,CC1(C(=O)Nc2cnc3ccccc3c2)CCN1Cc1ccc(OC(F)(F)F)cc1 (configuration not stated),inactive: 26.5%
12,CN1C(=O)CC(N2CCN(CC(=O)N3CCCC3)CC2)C1=O (configuration not stated),inactive: 5.87%
13,Cc1ccc(CN2CCN(/N=C/c3cccnc3)CC2)c(C)c1,inactive: 3.69%
14,COc1ccc(S(=O)(=O)/N=C2\C=C(Nc3ccc(O)cc3)C(=O)c3ccccc32)cc1,inactive: -3.15%
15,Cc1cc2nc(-c3ccc(SCc4ccccn4)nc3)[nH]c2cc1C,inactive: -23.9%
16,O=C(O)CCCCNS(=O)(=O)/C=C/c1ccccc1,inactive: 11%
17,Cc1ccc(C(=O)CC(c2cccs2)S(=O)(=O)c2ccc(C)cc2)cc1 (configuration not stated),inactive: 7.94%
18,COC(/C=C/Nc1ccc(Cl)cc1)=C(C#N)C#N,inactive: 1.01%
19,O=C(Nc1ccccc1F)c1ccc2sc([C@@H]3O[C@H](CO)[C@H](O)[C@H](O)[C@H]3O)nc2c1,inactive: -5.89%
20,COCCCn1c(-c2ccc(S(=O)(=O)N3CCOCC3)cc2)csc1=Nc1ccccc1,inactive: 0.815%
21,CCOP(=O)(OCC)C(Nc1ccccn1)c1ccc(F)cc1 (configuration not stated),inactive: 21.5%
22,Cc1c(C=O)c2ccccn2c1C(=O)c1cccc([N+](=O)[O-])c1,inactive: 33.6%

row,Structure (SMILES),growth rescue (activation)
1,O=C(CN(C(=O)CCC(=O)Nc1nccs1)c1ccc2c(c1)OCO2)NCc1ccc(F)cc1,inactive: 6.95%
2,Nc1nnnn1/N=C/C(Br)=C/c1ccccc1,inactive: 13.2%
3,CC(Sc1n[nH]c(-c2cccs2)n1)C(=O)N1CCCC1 (configuration not stated),inactive: 15.6%
4,CCOC(=O)C1(CCOc2ccccc2)CCN(Cc2ccccc2O)CC1,inactive: 0.999%
5,CCn1c([N+](=O)[O-])nc2c1c(=O)[nH]c(=O)n2C,inactive: -0.0518%
6,CCOc1ccc(/C=N/NC(=O)Cn2ccnc2C)cc1,inactive: 10.4%
7,O=S1(=O)CCC(NC(=S)Nc2ccc(Cl)cc2)C1 (configuration not stated),inactive: -7.22%
8,Cc1ccc(C)c(CN2C(=O)CSc3ccc(C(=O)N4CCCC4)cc32)c1,inactive: -2.72%
9,CSc1ccccc1NC(=O)c1cc(-c2ccco2)on1,inactive: 13.5%
10,Cc1ccc(NC(=O)Cn2cc(C(=O)C3CCCCC3)c3ccccc32)cc1,inactive: 13.7%
11,COc1ccc2c(c1)c(/C=N/Nc1nc3ccccc3[nH]1)c(C)n2C,inactive: 0.599%
12,CCCNC(=O)NC(=O)COC(=O)CNS(=O)(=O)/C=C/c1ccccc1,inactive: 1.02%
13,CCNc1c(NS(=O)(=O)c2ccc(OC)cc2)c(=O)oc2ccccc12,inactive: 8.2%
14,COc1ccccc1NC(=O)C(=O)NCc1ccccc1Cl,inactive: 15.4%
15,COc1cc(NC(=O)C/C(C)=N/NC(=O)Cc2ccccc2)c(OC)cc1Cl,inactive: 5.12%
16,COc1ccc(NC(=O)C2CCC(CNc3c(N4CCC(C)CC4)c(=O)c3=O)CC2)cc1OC (configuration not stated),inactive: -3.99%
17,N#Cc1c(F)cccc1N1CCN(Cc2ccc3c(c2)OCO3)CC1,inactive: -0.177%
18,CC(C)c1ccc(CNc2nc3nc4c(c(=O)n3[nH]2)CCC4)cc1,inactive: -8.15%
19,CC(=O)c1cccc(NC(=O)CSc2nnc(C(C)N(C)C)n2Cc2ccccc2)c1 (configuration not stated),inactive: 17%
